From the supplement of paper PMC12645437, “Orthogonal IMiD-Degron Pairs Induce Selective Protein Degradation in Cells” (ACS Chemical Biology, 2025)
Some of the results follow.

B1: Q9UKT9 (peptide)
chain: FACEVCGARFTQKGNLLRHIKL
B2: Q9UKT9 (peptide)
chain: LLCNQCGFECTQKGNLLRHIKL
B3: Q9UKT9 (peptide)
chain: FKCNVCGAIFTQKGNLLRHIKL
B4: Q9UKT9 (peptide)
chain: FICNQCGACFTQKGNLLRHIKL
B5: Q9UKT9 (peptide)
chain: FACNQCGHFFTQKGNLLRHIKL
B6: Q9UKT9 (peptide)
chain: LLCPICGFKCTQKGNLLRHIKL
B7: Q9UKT9 (peptide)
chain: FSCDICGAEFTQKGNLLRHIKL
B8: Q9UKT9 (peptide)
chain: FDCDVCGATFTQKGNLLRHIKL
B9: Q9UKT9 (peptide)
chain: FVCEICGALFTQKGNLLRHIKL
B10: Q9UKT9 (peptide)
chain: FFCEICGANFTQKGNLLRHIKL
B11: Q9UKT9 (peptide)
chain: FMCEVCGAEFTQKGNLLRHIKL
B12: Q9UKT9 (peptide)
chain: FMCNVCGADFTQKGNLLRHIKL
B13: Q9UKT9 (peptide)
chain: FLCEQCGANFTQKGNLLRHIKL
B14: Q9UKT9 (peptide)
chain: FWCPVCGALFTQKGNLLRHIKL

Target: no compound (DMSO)
Experiment: log2 fold change of degron read counts, EGFP-low vs EGFP+ sorted cells; higher = lower degron-EGFP level without compound (poor expression or instability)
Conditions: compound: DMSO control; 18 h
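Note: jurkat cells carrying a lentiviral library of mutant zinc finger degrons fused to EGFP plus mCherry, mCherry+ cells FACS sorted, degron abundance counted by next-generation sequencing.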

Sequence | log2 fold change of degron read counts
B1 | -1.18
B2 | 0.152
B3 | 0.272
B4 | -0.701
B5 | 0.872
B6 | 0.587
B7 | -2.45
B8 | -1.89
B9 | -1.13
B10 | -0.83
B11 | -1.72
B12 | -1.36
B13 | -1.58
B14 | 1.33
